In PubChem BioAssay AID493208 (National Center for Advancing Translational Sciences (NCATS), 2011):
Out of some 44,000 compounds screened, about 340 (0.77%) were called active. Not shown: some 5% with an inconclusive outcome. Calls follow the shape of the dose curve; as a rule, active = well fitted inhibition curve with a large enough effect; inconclusive = small, poorly fitted or top-dose-only effect; inactive = flat fitted curve, though single readings scatter. This is one part of the list.

assay: Acumen qHTS Assay for Inhibitors of the mTORC1 Signaling Pathway in MEF (Tsc2-/-, p53-/-) Cells: Sytravon; details: phospho-rpS6 immunofluorescence/PI, 24 h; series mostly up to 38.3 µM; activity change, negative = inhibition: at the top concentration;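 also: plate controls were DMSO for no effect and rapamycin for full effect; nearly all actives have a fitted effect of over 50% in size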
How it was run: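 Plate MEFs (Tsc2-/-, p53-/-, empty vector) in DMEM/10% FBS; after 24 h add compound, incubate 24 h at 37 degree Celsius; fix in PFA/TX-100, block, stain phospho-rpS6 and 10 uM PI; scan at 488 nm; report % positive cells.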

Activity change, negative = inhibition, inactive:
Cc1sc(-n2cccc2)c(C(C)NC(=O)Nc2ccccc2Cl)c1C (stereo not given) -6.19%
Cc1noc(Cn2c(=O)c3ccccc3n(CC(=O)Nc3ccc(F)cc3F)c2=O)n1 -13.8%
CCOc1ccc(CCNC(=O)c2ccc3c(c2)N(Cc2ccccc2)C(=O)c2ccccc2S3=O)cc1OCC (stereo not given) 1.54%
O=C(CN(c1cc(C(F)(F)F)ccc1Cl)S(=O)(=O)c1ccccc1)NCCc1ccccc1 -1.7%
COc1ccc(-c2c(C#N)c(SCC(=O)Nc3ccc(Br)cc3)nc(C)c2C(=O)Nc2ccccc2)cc1 8.39%
COC(=O)c1ccccc1NC(=O)c1cc2c(s1)-c1ccccc1OC2 -1.78%
O=C(CSc1nc(-c2ccccc2)c2ccccc2n1)Nc1ccc(F)cc1 -9.84%
CC1=C(C(=O)N2CCCCC2)C(c2cccc(Cl)c2)n2c(nc3ccccc32)N1 (stereo not given) -9.32%
Cc1cc(C)c(S(=O)(=O)NCCc2cc3ccc(C)cc3[nH]c2=O)c(C)c1 1.89%
CCOc1ccccc1NC(=O)Cn1c(=O)n(-c2ccccc2)c(=O)c2c1c1cc(C)ccc1n2C -6.85%
COc1ccc(NC(=O)CN2C(=O)CCc3cc(S(=O)(=O)N4CCOCC4)ccc32)c(OC)c1 2.88%
CCN(C(=O)CSc1nnc(-c2cc3occc3n2C)n1-c1ccccc1C)c1cccc(C)c1 -4.09%
COc1ccc(-c2cn3c(n2)sc2cc(C(=O)NCCCN4CCCCC4)ccc23)cc1 7.64%
CCN(CC)C(=O)c1cnn(-c2ccc(F)cc2)c1-n1cccc1 -0.874%
COc1ccc(N2CCN(C(=O)c3ccc4c(=O)n(CCc5ccc(OC)c(OC)c5)c(=O)[nH]c4c3)CC2)cc1 -5.76%
CCc1ccc(CNC(=O)CSc2cc(=O)n(CC)c3ccccc23)cc1 -8.87%
CCNC(=O)c1c(C)oc2ncn(C)c(=O)c12 1.53%
Cc1nn(CCCC(=O)Nc2cc(C(F)(F)F)ccc2Cl)c(=O)c2c1sc1ccccc12 5.59%
CCc1nn(CC(=O)N(CC)Cc2ccccc2)c(=O)c2cc3occc3n12 0.352%
CCc1ccc(NS(=O)(=O)c2ccc3[nH]cc(C(=O)NCc4ccc(C)cc4)c(=O)c3c2)cc1 -5.51%
Clc1ccc2nc(Nc3ccccc3Cl)nc(-c3ccccc3)c2c1 14.8%
CCOc1ccc(-n2c(=O)c3c4c(sc3n(Cc3cccc(C)c3)c2=O)CCCC4)cc1 4.24%
CCOCCCNC(=O)C1CCN(c2cc(C)nc3c(-c4ccc(Cl)cc4)c(C)nn23)CC1 -2.27%
O=C(Nc1ccc(Br)cc1F)C(NS(=O)(=O)c1cccc2nsnc12)c1ccccc1 (stereo not given) -3.11%
Cc1ccc(NC(=O)c2cc3c(-c4ccccc4)nn(-c4ccccc4)c3s2)cc1 -7%
COc1ccc(OC)c(NC(=O)c2c(NCc3ccc(OC)c(OC)c3)sc3c2CCC3)c1 0.956%
CCOc1ccccc1NC(=O)Nc1cc(C(=O)NCc2ccc(C)cc2)ccc1N1CCCC1 13.3%
COc1ccc(NC(=O)Cn2c(=O)n(CC(=O)NCCc3ccccc3)c(=O)c3ccccc32)cc1 -11.3%
COc1ccc(CNC(=O)c2cc3c(-c4ccccc4F)nn(C)c3s2)cc1 0.585%
O=C(Nc1cc(-c2nc3ccccc3o2)ccc1Cl)c1ccc(Br)o1 -18.3%
COc1cc(-c2noc(-c3ccc(N(C)C)c([N+](=O)[O-])c3)n2)cc(OC)c1OC 13.6%
Cc1ccc(CCNc2nc3c(S(=O)(=O)c4ccccc4)nnn3c3ccsc23)cc1 5.26%
Cc1ccccc1Cn1c2ccccc2c2cnn(CC(=O)NCCCc3ccccc3)c(=O)c21 -5.22%
O=C(Cn1c(-c2cccs2)cc2cc(F)ccc21)N1CCN(c2cccc(Cl)c2)CC1 -9.33%
COc1cccc(Cc2nc3ccccc3nc2SCC(=O)N2CCN(c3ccccc3)CC2)c1 0%
COc1ccc2c(c1)c1c(c(=O)n(-c3ccc(F)c(Cl)c3)c(=O)n1CC(N)=O)n2C -5.39%
CCOc1ccc(-c2c(C)nn3c(C)c(C(=O)NCCc4ccccc4)cnc23)cc1OCC 1.02%
CC(=O)Nc1ccc(S(=O)(=O)NC2(C(F)(F)F)NC(=O)N(c3ccccc3F)C2=O)cc1 (stereo not given) -1.24%
CCC1CN(C(=O)Nc2cccc(OC)c2)c2ccccc2O1 (stereo not given) -18%
COc1cccc2c1cc1c(=O)n(CC(=O)O)nc(C)n12 -6.19%
CCOc1ccc(Nc2sc(C(=O)c3ccc4c(c3)OCO4)c(N)c2S(=O)(=O)c2ccc(C)cc2)cc1 -0.69%
Cn1nc(C(=O)N2CCN(c3ccc(Cl)cc3)CC2)c2c1-c1ccccc1S(=O)(=O)C2 6.27%
COc1ccccc1CNC(=O)CSc1cc(=O)n(C)c2ccccc12 -1.91%
COc1ccc(-c2cc(C(F)(F)F)nc(NCc3ccc(Cl)cc3)n2)cc1 4.07%
CCOc1ccc(C2C(C(=O)Nc3ccccc3OC)=C(C)Nc3c(C(=O)Nc4cccc(C)c4)cnn32)cc1 (stereo not given) -1.29%
O=C1CC(c2nnc(Cc3cccc(Cl)c3)o2)CN1c1ccccc1 (stereo not given) 0.884%
Cc1ccc2c(c1)cc1c(=O)n(Cc3ccc(Cl)cc3)nc(C)n12 -9.74%
COc1cccc(-c2cc(C(=O)Nc3ccc(Br)c(C)c3)[nH]n2)c1 -2.3%
COc1ccc(-n2c(=O)c3ccc(C(=O)NCc4ccc(C)cc4)cc3n(Cc3cccc(Cl)c3)c2=O)cc1 -0.164%
COc1ccc(CN(Cc2ccco2)C(=O)c2ccccc2F)cc1 3.34%
CCn1c(CC2C(=O)Nc3ccccc32)nc2ccccc2c1=O (stereo not given) 3.84%
Cc1cccc(C)c1NS(=O)(=O)c1ccc2c(c1)[C@H]1C=CC[C@H]1[C@@H](c1ccc(Cl)cc1)N2 -9.09%
CCc1c(C)sc2c1CCN(Cc1ccccc1C#N)C2c1ccccc1 (stereo not given) 2.86%
CCOc1ccc(CNC(=O)C2CCN(c3nc4ccccc4nc3C(F)(F)F)CC2)cc1OC 10%
CC1CCN(c2oc(-c3cccs3)nc2S(=O)(=O)c2ccccc2)CC1 -7.85%
CCOC(=O)c1cnc2c(ccc3ccccc32)c1Nc1cccc(Cl)c1 9.94%
COc1ccc(CCNC(=O)c2cnc3sc(N4CCOCC4)nn3c2=O)cc1 -7.34%
Cc1nn(C)c2c1c(-c1ccccc1)cc(=O)n2Cc1ccc(F)cc1 1.94%
COc1ccc(-n2nc3ccc(NC(=O)c4cccc(OCCC(C)C)c4)cc3n2)cc1 7.84%
COc1ccc(CNC(=O)c2cnc(N3CCCC3)nc2C)c(OC)c1 2.16%
COc1ccccc1CNC(=O)C(NS(=O)(=O)c1ccc2c(c1)CCN2C(C)=O)C(C)C (stereo not given) 5.54%
CCOC(=O)c1cnc2ccc(OC)cc2c1Nc1ccc(OCc2ccccc2Cl)cc1 5.23%
Cc1ccc(NC(=O)CCC(=O)N2Cc3ccccc3Oc3ncccc32)cc1Cl -6.62%
COc1ccc(-c2nc3sc(CCNC(=O)Cc4ccccc4)c(C)n3n2)cc1 -5.25%
COc1ccc(C)cc1NC(=O)c1nnn(Cc2cccc(Br)c2)c1N -3.66%
COc1ccc(C2=NS(=O)(=O)N(C)C(C(=O)NC(C)c3ccccc3)=C2)cc1 (stereo not given) -10.7%
CCCS(=O)(=O)N1CCC(n2c(C)nc3cccnc32)CC1 6.4%
CCN(CC)S(=O)(=O)c1ccc2c(c1)N(CC(=O)NCCCN1CCN(c3ccc(OC)cc3)CC1)C(=O)CO2 3.64%
Cc1ccc2oc(C(=O)Nc3ccc(S(=O)(=O)N4CCCCC4C)cc3)cc(=O)c2c1 (stereo not given) 5.24%
CCOC(=O)c1cc(-c2ccccc2)n(CCC(=O)NCCc2ccccc2)c1C -17.4%
CCc1ccc(C(=O)c2cn(CC(=O)Nc3cc(OC)ccc3OC)c3ccc(Cl)cc3c2=O)cc1 -1.79%
COc1ccccc1NC(=O)CSc1cn(CC(=O)N2CCCC2)c2ccccc12 -6.05%
CC(=O)c1cccc(NC(=O)CCc2c(C)nc3nc(CN)nn3c2C)c1 0.795%
CC(=O)N1CCc2c(sc3c2c(=O)n(-c2ccccc2Cl)c(=O)n3Cc2cccc(C)c2)C1 -4.54%
CC(C)(C)C1CCc2c(sc(NC(=O)c3noc4c3CCCC4)c2C#N)C1 (stereo not given) -0.864%
CCC1CCCCN1C(=O)CSc1nnc(-c2ccc(OC)c(OC)c2)o1 (stereo not given) -8.57%
Cc1ccc2nc(-c3cccs3)c(Nc3ccc4c(c3)OCCO4)n2c1 -24.6%
CCC(=O)N1CCc2cc(S(=O)(=O)NCc3ccc(C)cc3)ccc21 -1.88%
CN(C)c1ncc(C(=O)NCc2ccc(Cl)cc2)cn1 0%
COc1ccccc1NC(=O)C1=C(C)Nc2nc3ccccc3n2C1c1ccccc1Cl (stereo not given) -0.725%
CCOc1ccc(NC(=O)c2ccc(F)c(S(=O)(=O)N(Cc3ccc(C(=O)OC)cc3)Cc3ccc(OC)c(OC)c3)c2)cc1 5.75%
O=C(Cn1cc(C(=O)c2ccco2)c2ccccc21)Nc1ccccc1 -3.98%
CCOc1ccc(N2CC(C)Cn3c2nc2c3c(=O)n(Cc3c(F)cccc3Cl)c(=O)n2C)cc1 (stereo not given) -8.65%
COc1ccc(Cl)cc1Nc1ccc2cc(S(=O)(=O)N3CCCCC3)ccc2n1 0%
Cc1cc(OCC(=O)N2CCC(c3nc4ccccc4s3)CC2)ccc1Cl 4.23%
O=C(CSc1ncc(-c2ccccc2)[nH]1)Nc1cccc(Br)c1 -3.18%
Cc1ccc(-c2nnn3c2nc(NC2CCC(C)CC2)c2ccccc23)cc1 (stereo not given) -16.1%
Cc1cc2n(n1)CCCN2C(=O)Nc1ccc(F)c(Cl)c1 -2.62%
CCOCCc1nnc(NC(=O)C(=O)c2cc(C)n(-c3ccc(Cl)cc3)c2C)s1 0.0739%
COC(=O)CN1C(C(=O)c2ccccc2)=C(OC(=O)c2ccc(F)cc2)c2ccccc2S1(=O)=O 0.631%
COc1cccc(-n2c(C)nc3cc(C(=O)O)ccc32)c1 4.56%
COc1cc2nc(NC(=O)c3ccc(S(=O)(=O)N4CCc5ccccc54)cc3)sc2cc1OC -6.97%
CC1CCCCN1C(=O)c1ccc2c(c1)N(Cc1ccc(F)cc1)C(=O)c1ccccc1S2(=O)=O (stereo not given) -13.3%
COc1cccc(-c2nc3c(C#N)c[nH]n3c2NC2CCCC2)c1OC 2.87%
COc1ccc(CNC(=O)C2CCN(S(=O)(=O)c3ccc4c(c3)CCCN4C(C)=O)CC2)cc1 -6.97%
